The values below are quoted from earlier work in patent publication US4442087A (priority 1979, dated 1984).

Like-named read-outs stand apart in the source and are kept apart here.

The conditions of this series: cited from earlier work; for IF-inducing activity on heating: 56 °C for 5 hours; for IF-inducing activity: literature.

phytohemagglutinin: the “IF-inducing activity on heating” value is given as “inactivated” and the IF-inducing activity result is recorded as “very weak”. Besides, under “listed as phytohemagglutinin (PHA)”, the IF-inducing activity entry is given as “extremely low”.

pokeweed mitogen: the “IF-inducing activity on heating” value is listed as “inactivated”.
